The campaign covered roughly 350,000 compounds. About 31,000 (8.9%) were called active. The shares of active, inactive and inconclusive entries below differ from those in the screen. Calls follow the shape of the dose curve; as a rule, active = well fitted inhibition curve with a large enough effect; inconclusive = small, poorly fitted or top-dose-only effect; inactive = no such curve, though single readings can be large or run the other way. A potency beside an inconclusive call is a rough fit, not a confirmed value.
Each compound was assayed against Histone-lysine N-methyltransferase EHMT2 (Homo sapiens) (UniProt Q96KQ7) (assay: qHTS Assay for Inhibitors of Histone Lysine Methyltransferase G9a). Details: G9a H3K9 monomethylation, AlphaScreen, 2 h; activity, negative = inhibition: at 59 µM (top of the series) unless noted.
Chain of UniProt Q96KQ7 (Q96KQ7 whole entry, looked up): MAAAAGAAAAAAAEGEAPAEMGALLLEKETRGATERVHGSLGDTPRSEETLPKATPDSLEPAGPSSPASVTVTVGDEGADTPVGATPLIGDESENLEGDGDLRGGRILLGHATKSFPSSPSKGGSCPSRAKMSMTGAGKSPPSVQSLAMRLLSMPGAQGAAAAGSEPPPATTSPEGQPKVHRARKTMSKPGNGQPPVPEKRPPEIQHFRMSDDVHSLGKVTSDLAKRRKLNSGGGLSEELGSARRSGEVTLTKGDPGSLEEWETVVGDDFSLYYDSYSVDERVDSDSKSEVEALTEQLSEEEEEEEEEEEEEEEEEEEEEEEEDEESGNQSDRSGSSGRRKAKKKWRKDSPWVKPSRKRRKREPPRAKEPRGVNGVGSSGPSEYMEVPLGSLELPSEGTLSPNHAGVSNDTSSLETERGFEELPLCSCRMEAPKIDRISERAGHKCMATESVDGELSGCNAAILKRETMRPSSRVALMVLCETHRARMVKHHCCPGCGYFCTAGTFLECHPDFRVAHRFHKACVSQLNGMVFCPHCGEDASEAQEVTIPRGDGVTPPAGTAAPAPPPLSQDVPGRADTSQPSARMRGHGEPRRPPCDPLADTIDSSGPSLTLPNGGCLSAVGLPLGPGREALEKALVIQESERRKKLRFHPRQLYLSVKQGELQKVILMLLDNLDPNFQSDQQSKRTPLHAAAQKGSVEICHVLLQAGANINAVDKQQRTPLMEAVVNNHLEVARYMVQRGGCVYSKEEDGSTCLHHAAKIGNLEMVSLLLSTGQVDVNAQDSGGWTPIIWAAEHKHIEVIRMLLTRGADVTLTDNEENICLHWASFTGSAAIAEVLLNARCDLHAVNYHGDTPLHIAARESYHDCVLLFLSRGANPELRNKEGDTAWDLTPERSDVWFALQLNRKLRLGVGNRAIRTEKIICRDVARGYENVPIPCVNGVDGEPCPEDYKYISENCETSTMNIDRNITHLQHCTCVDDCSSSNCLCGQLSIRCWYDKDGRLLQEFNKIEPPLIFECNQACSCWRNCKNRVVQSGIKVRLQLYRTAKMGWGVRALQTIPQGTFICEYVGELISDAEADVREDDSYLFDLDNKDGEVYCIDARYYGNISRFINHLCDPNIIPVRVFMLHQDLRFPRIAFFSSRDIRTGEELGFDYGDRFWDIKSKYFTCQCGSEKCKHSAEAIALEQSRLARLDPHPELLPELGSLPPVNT
Outline: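 Methyltransferase reactions run at room temperature for 2 h (20 nM enzyme, 500 nM biotin-H3K9 peptide, 20 uM SAM) after a 15 min compound preincubation; product detected by AlphaScreen beads and anti-H3K9me1 antibody.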
`Cc1cccn2c(Nc3ccc4c(c3)OCCO4)c(-c3ccc(Br)o3)nc12` was tested, and the Potency was active: 11.2 µM.
With `O=C(Nc1cccc(Cl)c1Cl)c1cc2nc(-c3ccc4c(c3)OCO4)cc(C(F)(F)F)n2n1` the “activity, negative = inhibition” value was inactive: 1.31%.
With `Cc1c(CN2CCN(C)C(CCO)C2)[nH]c2c(Cl)cccc12` (stereo not drawn) the Potency was inconclusive: 89.1 µM [inhibitor, single point].
In the case of `CCOCCCNS(=O)(=O)c1cc(Br)cc2c1N(C(=O)C1CC1)CC2`, the activity, negative = inhibition is reported as inactive: 14.1% [at 12.7 µM].
In the case of `O=C1C(=O)N(CCN2CCOCC2)C(c2ccc(F)cc2)/C1=C(/O)c1ccc(S(=O)(=O)N2CCOCC2)cc1` (stereo not drawn), the Potency is reported as inconclusive: 89.1 µM [inhibitor, single point].
With `Cc1ccc(NC(=O)c2nc(S(=O)(=O)Cc3cccc(C)c3)ncc2Cl)cc1` the Potency was inconclusive: 12.6 µM [inhibitor, partial curve].
For `CCc1nc(Nc2ccc(O)cc2)c2oc3ccccc3c2n1`, the Potency was inconclusive: 50.1 µM [inhibitor, partial curve, poor fit].
In the case of `Cc1ccc(N2C(=O)c3oc4cc(C)c(C)cc4c(=O)c3C2c2cccc(O)c2)nc1` (stereo not drawn), the “activity, negative = inhibition” value is reported as inactive: -2.95%.
For `CCn1c(Sc2ccc([N+](=O)[O-])cn2)nnc1-c1ccco1`, the activity, negative = inhibition was inactive: 0.88% [at 0.501 µM].
`Cc1cccc(-n2c(N)cc(=O)[nH]c2=S)c1` was tested, and the Potency was active: 50.1 µM.
In the case of `Cc1cc([N+](=O)[O-])ccc1NC(=S)NC(=O)C(c1ccccc1)c1ccccc1`, the Potency is reported as inconclusive: 31.6 µM [inhibitor, full curve].
With `Cc1cc(C)n(-c2ncc(-c3ccccc3)nn2)n1` the Potency was inconclusive: 89.1 µM [inhibitor, partial curve, poor fit].
For `CCOC(=O)c1c(Nc2nc(C)c(C(=O)NC)s2)sc(C)c1C`, the activity, negative = inhibition was inconclusive: -75.9% [inhibitor].
In the case of `O=C(O)CNc1nc(-c2ccccc2)c2cc([N+](=O)[O-])ccc2n1`, the Potency is reported as active: 7.94 µM.
In the case of `O=C(O)CCC(NS(=O)(=O)c1ccc(-c2ccccc2)cc1)C(=O)O` (stereo not drawn), the Potency is reported as inconclusive: 89.1 µM [inhibitor, single point].
In the case of `COc1ccc(C(=O)N2CCC[C@@]3(CCN(c4ccncc4)C3)C2)cc1`, the activity, negative = inhibition is reported as inactive: 7.37% [at 12.7 µM].
With `CCOc1ccccc1NC(=O)CCc1c(C)nc2cc(-c3ccccc3)nn2c1C` the “activity, negative = inhibition” value was inactive: -5.03%.
For `COc1ccc(-n2c(C)c(C(=O)O)c3cc(OC)c4ccccc4c32)cc1`, the Potency was inconclusive: 89.1 µM [inhibitor, partial curve, poor fit].
`CCOc1ccc(-c2nc(CN3CCCC(C(=O)N4CCOCC4)C3)c(C)o2)cc1` (stereo not drawn) was tested, and the Potency was inconclusive: 1.41 µM [inhibitor, full curve, poor fit].
For `N#Cc1ccc(OCCOCCNC2CCCC2)cc1`, the Potency was inconclusive: 20 µM [inhibitor, partial curve, poor fit].
With `CN1CCN(Cc2ccc(-c3ccc(Cl)cc3)o2)CC1` the activity, negative = inhibition was inconclusive: -61.2% [inhibitor].
`COc1cc(/C=C2\S/C(=N/S(=O)(=O)c3ccc(C)cc3)NC2=O)c([N+](=O)[O-])cc1OC` was tested, and the Potency was inconclusive: 28.2 µM [inhibitor, single point].
In the case of `O=C(OCc1c(F)cccc1Cl)c1cccnc1Cl`, the “activity, negative = inhibition” value is reported as inactive: 56.4% [at 102 µM].
For `S=c1[nH]nc(C2COc3ccccc3O2)o1` (stereo not drawn), the Potency was active: 31.6 µM.
`Cc1nnsc1C(=O)NC1CCCc2c1cnn2-c1ccc(C(C)(C)C)cc1` (stereo not drawn) was tested, and the “activity, negative = inhibition” value was inactive: 24.4% [at 102 µM].
For `Cc1cc(C(=O)Nc2c(F)cc(F)cc2Br)n(-c2ccccc2)n1`, the “activity, negative = inhibition” value was inactive: -9.07% [at 102 µM].
`CCCN(CCC)C(=O)c1nn(C)c2c1CSc1ccccc1-2` was tested, and the “activity, negative = inhibition” value was inactive: -5.23%.
With `C=CCN(C(=O)CNC(=O)c1ccco1)C(C(=O)NC1CCCC1)c1cccs1` (stereo not drawn) the “activity, negative = inhibition” value was inactive: 6.5% [at 102 µM].
`CCc1cccc(NC2c3ccccc3C(=O)N2c2cccnc2)c1` (stereo not drawn) was tested, and the Potency was inconclusive: 35.5 µM [inhibitor, single point].
`Cc1ccc(NC(=O)CC(=O)Nc2ccc(C)cc2C)c(C)c1` was tested, and the “activity, negative = inhibition” value was inactive: 5.49% [at 102 µM].
In the case of `O=C(NCCOc1ccccc1)C1CCCN1C(=O)c1cccs1` (stereo not drawn), the Potency is reported as inconclusive: 28.2 µM [inhibitor, single point].
For `O=S(=O)(c1ccc(F)cc1)c1snnc1-c1ccccc1`, the “activity, negative = inhibition” value was inactive: -6.87% [at 102 µM].
With `CCCCNCCOCCOc1ccccc1-c1ccccc1` the Potency was inconclusive: 39.8 µM [inhibitor, single point].
`CCC(C)C(=O)Nc1nc(C)c(-c2csc(Nc3cc(Cl)ccc3OC)n2)s1` (stereo not drawn) was tested, and the Potency was inconclusive: 25.1 µM [inhibitor, single point].
`O=C(CSc1nnc(-c2cccnc2)n1-c1ccccc1)Nc1ccccn1` was tested, and the activity, negative = inhibition was inactive: -24.9% [at 12.7 µM].
For `COc1ccccc1-c1nnc(NC(=O)C2=COCCO2)o1`, the Potency was inconclusive: 1.41 µM [inhibitor, partial curve, poor fit].
`CC(=O)Oc1ccc2c(c1)C(=O)c1ccccc1C2=O` was tested, and the Potency was inconclusive: 10 µM [inhibitor, full curve].
For `CCS(=O)(=O)Nc1ccc(C(=O)NCCSc2ccccc2)cc1`, the Potency was active: 79.4 µM.
`CC(C(=O)Nc1ccccc1)n1nnc2sc3c(c2c1=O)CCCC3` (stereo not drawn) was tested, and the Potency was active: 15.8 µM.
In the case of `CCOC(=O)N1CCC(N2C(=O)c3ccc(C(=O)NCc4ccco4)cc3C2=O)CC1`, the Potency is reported as active: 70.8 µM.
With `COc1ccccc1N(CC(=O)N(C)Cc1ccccc1)S(=O)(=O)c1cccs1` the activity, negative = inhibition was inactive: -2.04% [at 2.33 µM].
`COc1ccc2c(c1)C(c1ccccc1OC)CC(=O)O2` (stereo not drawn) was tested, and the Potency was active: 35.5 µM.
`Nc1nc(-c2ccco2)nn1C(=O)c1ccccc1Cl` was tested, and the Potency was inconclusive: 25.1 µM [inhibitor, single point].
With `Cc1ccc(C(=O)N/C(=C\c2ccc(-c3ccc(Cl)cc3)o2)C(=O)NCCCN(C)C)cc1` the Potency was inconclusive: 89.1 µM [inhibitor, single point].
In the case of `O=C(CSc1nnc(-c2c[nH]c3ccccc23)n1-c1ccc(F)cc1)NCc1ccco1`, the Potency is reported as inconclusive: 20 µM [inhibitor, partial curve, poor fit].
For `Oc1ccc(C[C@H]2CNCCN2CC2CCCCC2)cc1`, the activity, negative = inhibition was inactive: -0.421% [at 2.33 µM].
For `Cc1cc(NC(=O)C(C)SCC(=O)OCC(=O)Nc2c(C)cccc2C(C)C)no1` (stereo not drawn), the Potency was inconclusive: 3.55 µM [inhibitor, single point].
`COCCNC(=S)N1CCN(c2nc(-c3ccc(Cl)cc3)cs2)CC1` was tested, and the Potency was inconclusive: 89.1 µM [inhibitor, single point].
In the case of `CC1CCN(C(=S)NC(=O)c2cccs2)CC1`, the Potency is reported as active: 44.7 µM.
For `COc1ccc(/C=C/C(=O)O)cc1`, the “activity, negative = inhibition” value was inactive: 36.8%.
In the case of `CCNC(=O)CSc1nnc(-c2ccccc2Br)n1-c1cccc(C(F)(F)F)c1`, the Potency is reported as inconclusive: 79.4 µM [inhibitor, single point].
For `Cc1cccc(NC(=O)Nc2nnc(N3CCCC3)s2)c1`, the Potency was inconclusive: 39.8 µM [inhibitor, partial curve, poor fit].
`CC(=O)Nc1ccc(S(=O)(=O)N/N=C/c2ccc(C)s2)cc1` was tested, and the Potency was inconclusive: 0.891 µM [inhibitor, partial curve, poor fit].
In the case of `Cc1ccc2[nH]c(=O)c(CN(Cc3cccs3)S(=O)(=O)c3ccc4c(c3)OCCO4)cc2c1`, the Potency is reported as active: 1 µM.
In the case of `S=c1nc(-c2cccc(Cl)c2)[nH][nH]1`, the Potency is reported as active: 1.58 µM.
`Cc1ccc(-n2cnc3cc(C(=O)NCCC4=CCCCC4)ccc32)cc1Cl` was tested, and the “activity, negative = inhibition” value was inactive: -3.44%.
`COc1cccc(NC(=O)Cc2nnc(SCC(=O)c3ccccc3)n2C)c1` was tested, and the Potency was active: 0.355 µM.
`COc1ccc(S(=O)(=O)Nc2ccc(N3CCOCC3)cc2)cc1[N+](=O)[O-]` was tested, and the Potency was active: 44.7 µM.
With `Cc1sccc1C1C(C#N)=C(N)SC(N)=C1C#N` the Potency was active: 1.12 µM.
For `COC(=O)c1[nH]c2ccccc2c1NC(=O)CN1CCN(Cc2ccc3c(c2)OCO3)CC1`, the Potency was inconclusive: 1 µM [inhibitor, single point].
For `COc1cc(/C=N/NC(=O)NC2CCCCC2)cc(OC)c1O`, the Potency was active: 50.1 µM.
In the case of `CCc1nnc(NC(=O)c2cc([N+](=O)[O-])ccc2N2CCOCC2)s1`, the “activity, negative = inhibition” value is reported as inactive: -3.27% [at 102 µM].
`O=C(N/N=C/c1ccc([N+](=O)[O-])s1)c1ccncc1` was tested, and the Potency was inconclusive: 89.1 µM [inhibitor, single point].
For `Cc1ccc(-c2nc(N)sc2C)cc1`, the Potency was active: 50.1 µM.
With `COc1ccc(CNC(=O)C(=O)NCC(c2cccs2)S(=O)(=O)c2cccs2)cc1` (stereo not drawn) the “activity, negative = inhibition” value was inactive: 6.24%.
`NC(=O)CC(NC(=O)Cc1cccc2ccccc12)c1ccc(NCc2ccc(F)cc2)c([N+](=O)[O-])c1` (stereo not drawn) was tested, and the activity, negative = inhibition was inconclusive: -56.2% [inhibitor].
In the case of `Cc1cccc(NC(=O)COc2ccc3oc4c(c3c2)CCCC4)c1`, the Potency is reported as inconclusive: 0.1 µM [inhibitor, full curve, poor fit].
`CC(C)(C)c1csc(NC(=O)Cc2ccc(S(=O)(=O)N3CCOCC3)s2)n1` was tested, and the Potency was inconclusive: 50.1 µM [inhibitor, partial curve, poor fit].
For `CC(C)NCC(=O)NC12CC3CC(CC(C3)C1)C2`, the Potency was inconclusive: 89.1 µM [inhibitor, single point].
For `O=C(c1cc([N+](=O)[O-])cc([N+](=O)[O-])c1)N1CCCc2ccccc21`, the Potency was inconclusive: 10 µM [inhibitor, partial curve, poor fit].
In the case of `Cc1noc(NS(=O)(=O)c2ccc(NC(=O)C34CC5CC(C3)CC(n3cnc(Cl)n3)(C5)C4)cc2)c1C`, the “activity, negative = inhibition” value is reported as inactive: -29.9%.
`COc1ccc(N/N=C(/Oc2ccc([N+](=O)[O-])cc2)C(C)=O)cc1` was tested, and the Potency was inconclusive: 22.4 µM [inhibitor, single point].
With `CN(C)C(CNS(=O)(=O)c1ccc(Cl)cc1)c1cccnc1` (stereo not drawn) the Potency was inconclusive: 35.5 µM [inhibitor, partial curve, poor fit].

Reference: PubChem BioAssay AID504332 (National Center for Advancing Translational Sciences (NCATS), 2011)
% is scaled to controls: 0 for no effect and ±100 for the full control effect; potency is read from the fitted curve at half-maximal effect; tags tell the direction and shape of the fitted curve.
Also: nearly all actives have a fitted effect of over 75% in size.
